Results taken from PubChem BioAssay AID624173 (National Center for Advancing Translational Sciences (NCATS), 2012).
The campaign covered roughly 410,000 compounds. About 490 (0.12%) were called active. The shares of active, inactive and inconclusive entries below differ from those in the screen. Calls follow the shape of the dose curve; as a rule, active = well fitted inhibition curve with a large enough effect; inconclusive = small, poorly fitted or top-dose-only effect; inactive = flat fitted curve, though single readings scatter. Potencies of inconclusive entries are doubtful fits and often do not repeat.

molecular target: pyruvate kinase (Trypanosoma brucei) (UniProt Q57TT1); assay: qHTS of Trypanosoma Brucei Inhibitors; conditions: TbPYK enzyme, Kinase-Glo Plus ATP luminescence, 45 min; series mostly up to 76.8 µM; activity, negative = inhibition: at the top concentration; also: nearly all actives have a fitted effect of over 50% in size
In short: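 Readout: single end-point luminescence (Kinase-Glo Plus, 10 min). Reaction conditions were TbPYK/substrate plus 130 uM ADP, 45 min at RT, pH 7.2 TEA buffer. No-enzyme wells served as controls, and data were normalized before concentration-response fitting.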
% is scaled to controls: 0 for no effect and ±100 for the full control effect; potency is read from the fitted curve at half-maximal effect; tags tell the direction and shape of the fitted curve.

Row | SMILES | activity, negative = inhibition | Potency
1 | CCN(C(=O)COC(=O)/C=C/c1ccc2c(c1)OCO2)c1c(N)n(Cc2ccccc2)c(=O)[nH]c1=O | inactive: -7.18% | –
2 | CCN(CC)c1ccc(N=C2C(=O)Nc3ccccc32)cc1 | – | inconclusive: 12.6 µM [inhibitor, partial curve, poor fit]
3 | O=C(Nc1ccc(-c2nc3cccnc3s2)cc1)C1CCCO1 (configuration not stated) | – | inconclusive: 35.5 µM [inhibitor, partial curve]
4 | CC1Cc2ccccc2N1C(=O)CN1C(=O)NC(C)(CCc2ccccc2)C1=O (configuration not stated) | inactive: -8.2% | –
5 | CCCCn1c(=S)[nH]c2c(=O)n(C)c(=O)n(C)c21 | – | inconclusive: 5.62 µM [inhibitor, full curve]
6 | CN(Cc1ccccc1)C(=O)c1ccc([N+](=O)[O-])o1 | inactive: 5.02% | –
7 | COc1ccc(NC(=O)C2(C)CCN2C(=O)Cc2ccc(Cl)cc2Cl)cc1OC (configuration not stated) | inactive: 5.22% | –
8 | NS(=O)(=O)c1ccc(-c2ccc(/C=C3\NC(=S)NC3=O)o2)cc1 | – | inconclusive: 22.4 µM [inhibitor, partial curve, poor fit]
9 | COc1ccc(Cn2c(-c3ccc(OC)cc3)n[nH]c2=S)cc1 | – | inconclusive: 2 µM [inhibitor, full curve, poor fit]
10 | COc1ccc(NC(=O)c2c(NCc3ccc(OC)c(OC)c3OC)sc3c2CCC3)c(OC)c1 | – | inconclusive: 35.5 µM [inhibitor, single point]
11 | CC(C)C[C@H]1CNC(=S)N1C[C@H]1CCCN1C[C@H](Cc1ccc(O)cc1)N1C[C@H](Cc2ccc(O)cc2)N(CC2CCCCCC2)C1=S | inactive: -4.75% | –
12 | CCOc1cc(/C=C2\C(=O)NC(=O)N(C)C2=O)cc([N+](=O)[O-])c1O | – | inconclusive: 44.7 µM [inhibitor, single point]
13 | CCCCN(C)CCNC(=O)c1ccc(Cn2c(=S)[nH]c3ccc(Br)cc3c2=O)cc1 | – | inconclusive: 31.6 µM [inhibitor, partial curve]
14 | CC(C)CNC(=O)C1Nc2ccccc2C2C=CCC12 (configuration not stated) | – | inconclusive: 14.1 µM [inhibitor, partial curve]
15 | CC(=O)c1ccc(NC(=O)CSc2nnc(-c3ccco3)c(-c3ccco3)n2)cc1 | – | inconclusive: 20 µM [inhibitor, partial curve, poor fit]
16 | CCCCN(C(=O)c1cc(CN2C(=O)c3ccccc3C2=O)ccc1OC)c1c(N)n(CC(C)C)c(=O)[nH]c1=O | inactive: 6.15% | –
17 | FC(F)(F)c1cc(-c2ccco2)nc(NCc2cccnc2)n1 | inactive: -3.18% | –
18 | Oc1cc2c(cc1C(c1ccc(Cl)c(Cl)c1)N1CCCC1)OCO2 (configuration not stated) | – | inconclusive: 15.8 µM [inhibitor, partial curve, poor fit]
19 | O=C(CCNC(=O)c1ccccc1Cl)Nc1nc(-c2ccccc2Cl)cs1 | inactive: 0.145% | –
20 | Cc1ccccc1-n1c(-c2ccco2)n[nH]c1=S | – | inconclusive: 5.01 µM [inhibitor, partial curve]
21 | CCn1c(CCCc2ccc(OC)c(C)c2)n[nH]c1=S | – | inconclusive: 17.8 µM [inhibitor, partial curve, poor fit]
22 | Cn1c(N)c(C(=O)/C=C/c2ccccc2)c(=O)[nH]c1=O | – | inconclusive: 28.2 µM [inhibitor, single point]
23 | Cc1cc(=O)n(Cc2ccc(Cl)cc2)c2c1c(C)nn2-c1ccccc1 | inactive: 0.779% | –

Row | SMILES | activity, negative = inhibition | Potency
24 | CSc1cc(-c2ccc(Cl)cc2)c(C(=O)NC(C)C)s1 | – | inconclusive: 28.2 µM [inhibitor, single point]
25 | CCOC(=O)/C=C(\C)Sc1cc(O)c2ccccc2c1O | – | active: 7.08 µM
26 | Cc1nn(-c2ccc(C(=O)OC(C)C)cc2)c(C)c1[N+](=O)[O-] | inactive: 1.1% | –
27 | S=c1[nH]nc(-c2cccnc2)n1-c1ccccc1 | – | inconclusive: 31.6 µM [inhibitor, partial curve, poor fit]
28 | Cc1cccc(NC(=O)CSc2nnc(-c3ccco3)c(-c3ccco3)n2)c1C | – | inconclusive: 50.1 µM [inhibitor, single point]
29 | COC(=O)c1cc(=O)nc2sc(-c3ccc(F)cc3)nn12 | – | inconclusive: 25.1 µM [inhibitor, partial curve, poor fit]
30 | COc1cccc(NC(=O)CSc2nnc(-c3ccco3)c(-c3ccco3)n2)c1 | – | inconclusive: 25.1 µM [inhibitor, partial curve]
31 | CCn1c(-c2c[nH]c3ccccc23)n[nH]c1=S | – | inconclusive: 31.6 µM [inhibitor, partial curve]
32 | COc1cc(C(=O)Nc2cccc(-c3nc4cc(C)ccc4o3)c2)cc(OC)c1OC | – | inconclusive: 7.08 µM [inhibitor, full curve]
33 | S=c1[nH]nc(-c2cc(-c3ccccc3)n[nH]2)n1/N=C/C(Br)=C/c1ccccc1 | – | inconclusive: 35.5 µM [inhibitor, partial curve, poor fit]
34 | c1cncc(-c2nc(-c3ccco3)cs2)c1 | – | inconclusive: 28.2 µM [inhibitor, single point]
35 | Cn1c(CC(=O)Nc2ccccc2)n[nH]c1=S | – | inconclusive: 17.8 µM [inhibitor, partial curve]
36 | COc1cccc(NC(=O)Cn2cc(S(=O)(=O)Cc3ccccc3F)c3ccccc32)c1 | inactive: 0.782% [at 15.4 µM] | –
37 | O=C(O[C@@H]1OC2COC(=O)c3cc(O)c(O)c(O)c3-c3c(cc(O)c(O)c3O)C(=O)O[C@@H]([C@H]1O)[C@@H]2O)c1cc(O)c(O)c(O)c1 | – | inconclusive: 4.47 µM [inhibitor, partial curve]
38 | CN(C)C(=O)CS(=O)(=O)c1ccc(Cl)cc1 | – | inconclusive: 50.1 µM [inhibitor, single point]
39 | Cc1ccc(NC(=O)c2cnn(-c3ccccc3)c2NC(=O)c2ccco2)cc1 | – | inconclusive: 50.1 µM [inhibitor, single point]
40 | COc1ccc(C2=CSC3=C(C(=O)c4cccc(S(=O)(=O)N(C)C)c4)CCN23)cc1 | – | inconclusive: 50.1 µM [inhibitor, single point]
41 | Cc1cc(C)nc(Sc2nc(Cl)nc(N(c3ccccc3)c3ccccc3)n2)n1 | – | inconclusive: 35.5 µM [inhibitor, partial curve, poor fit]
42 | CN(CC(=O)Nc1ccccc1Cl)CC(=O)N1CCc2ccccc21 | – | inconclusive: 28.2 µM [inhibitor, single point]
43 | COCC(C)NC(=S)Nc1ccccc1[N+](=O)[O-] (configuration not stated) | inactive: -3.97% | –
44 | COCCSc1nnc(NC(=O)C2CCN(C(=O)c3ccco3)CC2)s1 | inactive: 1.9% | –
45 | CCNC(=S)N/N=C/c1cccc(C)c1 | inactive: -0.699% | –
46 | CCOC(=O)c1cnc2c(ccc3ccccc32)c1NCCO | inactive: 0.642% | –

Row | SMILES | activity, negative = inhibition | Potency
47 | Cc1ccc(S(=O)(=O)NCc2nc3ccccc3c(=O)n2N)cc1 | – | inconclusive: 56.2 µM [inhibitor, single point]
48 | Cc1ccc(C(=O)c2sc(Nc3ccccc3)c(S(=O)(=O)c3ccccc3)c2N)c(C)c1 | inactive: 3% | –
49 | COc1ccc(C(=O)/C=C/C(=O)N(CC(=O)NCCC(C)C)Cc2cccs2)c(O)c1 | – | inconclusive: 35.5 µM [inhibitor, single point]
50 | CCN1/C(=C/c2ccc3cc(C)ccc3[n+]2CC)Sc2ccc3sccc3c21 | – | inconclusive: 35.5 µM [inhibitor, single point]
51 | Clc1nssc1=Nc1ccccc1 | – | inconclusive: 15.8 µM [inhibitor, partial curve, poor fit]
52 | CCn1c(Cc2cccc3ccccc23)nnc1SCC(=O)Nc1nccs1 | – | inconclusive: 44.7 µM [inhibitor, single point]
53 | COc1ccc(Cc2n[nH]c(=S)n2-c2cc(C)ccc2C)cc1OC | – | inconclusive: 2.82 µM [inhibitor, partial curve, poor fit]
54 | COc1ccccc1-n1cc(C(=O)N2CCCC(CO)(Cc3ccccc3C)C2)cn1 (configuration not stated) | – | inconclusive: 1.78 µM [inhibitor, full curve]
55 | S=c1[nH]ccn1-c1cccc(Cl)c1Cl | – | inconclusive: 15.8 µM [inhibitor, partial curve]
56 | O=C(c1ccc2c(c1)OCO2)c1cn(Cc2ccc(Cl)cc2)c2ccc(F)cc2c1=O | inactive: -1.65% | –
57 | CSCC(C)N1CCC(n2nccc2NC(=O)CCCc2ccccc2)CC1 (configuration not stated) | inactive: -12.3% | –
58 | C=CCn1c(CCSCc2ccc(OC)c(C)c2)n[nH]c1=S | – | active: 7.94 µM
59 | COc1ccc(-c2cn(-c3ccccc3)c(=S)[nH]2)cc1OC | – | inconclusive: 1.41 µM [inhibitor, full curve, poor fit]
60 | CCOc1ccc(CNC(=O)C2CCN(c3nnc(-n4c(C)ccc4C)s3)CC2)cc1 | inactive: 2.37% | –
61 | COc1ccc(-n2c(=S)[nH]c3c(sc(=S)n3-c3ccccc3)c2=O)c(OC)c1 | – | inconclusive: 31.6 µM [inhibitor, partial curve, poor fit]
62 | Cc1cc(C)n(CCc2nc3c4ccccc4nc(N4CCN(c5cccc(C)c5C)CC4)n3n2)n1 | inactive: 3.97% | –
63 | CCCOc1ccc(C(=O)NC(=S)N2CCN(c3ncc4c(=O)c(C(=O)O)cn(CC)c4n3)CC2)cc1 | – | inconclusive: 25.1 µM [inhibitor, single point]
64 | O=C(NCCN1CCCC1)c1ccc(Cn2c(=S)[nH]c3cc4c(cc3c2=O)OCO4)cc1 | – | inconclusive: 31.6 µM [inhibitor, single point]
65 | C=CCn1c(Cc2ccccc2)n[nH]c1=S | – | inconclusive: 15.8 µM [inhibitor, partial curve, poor fit]
66 | O=[N+]([O-])c1ccc(NNC(=S)Nc2ccccc2)cc1 | – | inconclusive: 39.8 µM [inhibitor, partial curve, poor fit]
67 | Nc1nc2c(s1)CCc1c-2cnn1-c1ccccc1 | – | inconclusive: 11.2 µM [inhibitor, partial curve, poor fit]
